# Assay results published in paper PMC12136788.
# This is one part of the list.
# T1: UNK ZnF1-3 (human, UniProt Q9C0B0 31-174)
# T1 sequence: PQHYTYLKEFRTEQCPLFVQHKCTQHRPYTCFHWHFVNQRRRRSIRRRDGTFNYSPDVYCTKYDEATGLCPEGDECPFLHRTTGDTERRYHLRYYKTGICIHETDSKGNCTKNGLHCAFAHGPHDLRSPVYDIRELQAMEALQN
# B1: chr5:93601047:93601048:+_ENSMUSG00000058013_ENSMUST00000074733|mus_hu|motif|central (ssRNA)
# RNA: GGGAGUUCUACAGUCCGACGAUCCAUGAUCCAACCUUUAAGACCUCUAUCUGUGAGAGGAUCAAGGAUGCACCAGUAAAUGUGAACGGAUCAUAGUUUUCUCAUACCAGUCUACUCCAACUUGGCCAGGAUUGAAGGCAGGCACAACAGAGGAUUGAGCAUCA
# B2: chr4:175180916:175180917:-_ENSG00000164117_ENST00000503293|hu_mus|motif|central (ssRNA)
# RNA: GGGAGUUCUACAGUCCGACGAUCAUUAAAGGUGAGGCUUCCCUCAUCUAGCUGCAUAUACAAUUUUCUAAAAGAAAAUCCGGAAGGUGGGUUCUUAUUGUAUAUAGAGCAGUGACCCCAUGUAGAUUUACACAACCCUUGCCACAACAGAGGAUUGAGCAUCA
# B3: chr4:174295105:174295106:+_ENSG00000164105_ENST00000296504|hu_hu|FALSE|FALSE (ssRNA)
# RNA: GGGAGUUCUACAGUCCGACGAUCUUGUGCUUUAUUAAGUCCUGGUCUGGUUGGUAGCUUGAAGUGUCUUUUGUAUCUCCUAAGUGUAUUUACUUGUAAUUGGUAUAAAUCAACCUCUGGGGUAUCAAUAUCUUGAACAGGUGACAACAGAGGAUUGAGCAUCA
# B4: chr14:37946427:37946428:-_ENSMUSG00000041028_ENSMUST00000165649|mus_hu|FALSE|FALSE (ssRNA)
# RNA: GGGAGUUCUACAGUCCGACGAUCCGAUGGUUCCAAUGCUGCCUCUUUGAGUUCUUGGCCAGUUCUCCCACGCCGGAUCCCAAUUCUUGUUUUGGUGGCAUAUUCCCUGCUAGGUGUUAACAGCCAUUGAUUCUUCGUGAUGGACAACAGAGGAUUGAGCAUCA
# B5: chr5:3590733:3590734:-_ENSMUSG00000040302_ENSMUST00000042753|mus_hu|FALSE|FALSE (ssRNA)
# RNA: GGGAGUUCUACAGUCCGACGAUCUGAGUUCCCUGCAGAAGUGUUCAAAGCAGCUUUACAAAAUCCAGACAUCUCUGAGUGGAAGUCUUGUCUAAAAUCCUCUGUGUCUUUAUGCUCUGUAACCAAUUUCUUCUUUGUCACGUACAACAGAGGAUUGAGCAUCA
# B6: chrX:70776531:70776532:+_ENSG00000147162_ENST00000373719|perfect_dup|motif|central (ssRNA)
# RNA: GGGAGUUCUACAGUCCGACGAUCCUGUUGCAGUACACUUGCUAAAUUGGAAUGUGCAGCAGCAAACUCUGGGAAGACUUCGGAUGCUUUGCGAUACAGGCGAACUGCCUCUUCAAUGUUGCCCUGUUCCCGUUUGAUGUUGGCCAACAGAGGAUUGAGCAUCA
# B7: chr3:125295114:125295115:-_ENSG00000144909_ENST00000296220|hu_mus|motif|central (ssRNA)
# RNA: GGGAGUUCUACAGUCCGACGAUCAACAUUAAAAAAAGACAUGGCAUUCUGACUUGGUCUCCGCUGGGAUAUGGGAGAAUUACCACGGGAUGCCAGCGAGAAGCUCCGGGACUUCAGGGGAGGGUUAUUCUUUCCAAUAGCUUCCAACAGAGGAUUGAGCAUCA
# B8: chr12:21621489:21621490:+_ENSG00000121350_ENST00000240651|hu_mus|FALSE|FALSE (ssRNA)
# RNA: GGGAGUUCUACAGUCCGACGAUCGACUUUGACAUACUCUUGUCCUCUGGUGCACCUCAGCAUCAACUCAUGGUCUGCGCCCAGGCCUUGUGCGUUGUAUUUUCCCAGCAAUACAACCUUAUAGUUAAAAAACUUUGUGACAUGCAACAGAGGAUUGAGCAUCA
# B9: chr4:115894766:115894767:+_ENSMUSG00000028698_ENSMUST00000030464|mus_hu|mus_mus_mus_hu_True|68_68 (ssRNA)
# RNA: GGGAGUUCUACAGUCCGACGAUCUUCCACACGGAAAUGUACUUCGGGUUUUCCAACGGCCAGUACCGUCCAGCCAAAACUACCCGAACAGGGUCCUCCCCCUCUCUCCUACAGAACACAACAAAAUGCCCCCGAACUUUCAAGCAACAGAGGAUUGAGCAUCA
# B10: 56345045_56345841_383_CDS_ENSG00000134852_ENST00000309964|human|control|control (ssRNA)
# RNA: GGGAGUUCUACAGUCCGACGAUCAUUACCAGGAAGCAUGGAUCCCAGUUCUUUAAUGAGAACAUUAAAUUGAUCUCUACGUUUCUUUUCAGAUUUGUUUCUAGAUACUCUUUUCGCUUUGUCCUUGUCAUCUUCUUCCACCAACAACAGAGGAUUGAGCAUCA
# B11: chr17:60770872:60770873:+_ENSG00000011028_ENST00000303375|hu_hu|hu_hu_hu_mus_True|38_98 (ssRNA)
# RNA: GGGAGUUCUACAGUCCGACGAUCUCUUUAAAAAAAAUUCCUUUUUUACAAACAAUAAUAGCACAUUUCGAGAAUCAAGAACUACAAUAGAGGGUCCAUGUCUUCGAUUUGUUCACAUCGUCCUGCACUGGGACACGGGGACUGCAACAGAGGAUUGAGCAUCA
# B12: chr6:76550321:76550322:+_ENSG00000196586_ENST00000369975|hu_hu|motif|central (ssRNA)
# RNA: GGGAGUUCUACAGUCCGACGAUCAACAACUGAGCUCUUUUCAUUAAAAUGUAUUUCUACAAAUUUCCCAAAUCGACUGCGGUUAUUGUUGCGAACAGUCUUCGCAUUUCCAAAGGCUUCUAGGAGUGGGUUAGCUUCAACAAUCAACAGAGGAUUGAGCAUCA
# B13: chr2:179515052:179515053:+_ENSMUSG00000000305_ENSMUST00000000314|mus_hu|mus_mus_mus_hu_False|88_98 (ssRNA)
# RNA: GGGAGUUCUACAGUCCGACGAUCGCUGUCCCAUGCAGUGACGGUAAAGGCCACCUGCUCGGAGGGGACCUGCAGCUCCCGGGUGGCGAAGACUGUCCCAUCUGCCCCAACUUUGAAGUCCAUGCUGUUGGUCUCAUAUUGUGUCAACAGAGGAUUGAGCAUCA
# B14: chr3:176740097:176740098:-_ENSG00000177565_ENST00000430069|hu_mus|hu_hu_hu_mus_True|1_1 (ssRNA)
# RNA: GGGAGUUCUACAGUCCGACGAUCUGUUUUGUAUACCACAAAAGGAGGCACUUUCAGUAUCUGCAAAAGGUGUUUAGUCCUAAAACAUACUCACCUAGAGGAUAACUCAGGAAAACAAUCUGUUACACUCUAAGACCUUAGGAACAACAGAGGAUUGAGCAUCA
# Molecular target: T1, UNK ZnF1-3
# Experiment: nsRBNS (natural sequence RNA bind-n-seq); RBNS binding buffer (assumed for nsRBNS): 25 mM Tris pH 7.5, 150 mM KCl, 3 mM MgCl2, 0.01% Triton X-100, 500 ug/ml BSA, 20 U/ml SUPERase-In, 4 C; UNK is unkempt and MSI1 is Musashi-1; names of the RNAs are library labels; protein concentration not given here; high values mean tight binding
row,Binder,binding signal [enrichment R]
1,B1,1.34
2,B2,1.21
3,B3,0.907
4,B4,0.494
5,B5,0.902
6,B6,0.919
7,B7,2.08
8,B8,0.981
9,B9,1.06
10,B10,0.531
11,B11,0.867
12,B12,0.856
13,B13,0.874
14,B14,0.817
